The values below come from the supplement of paper PMC6206098.

± gives the uncertainty stated by the source. Shown are siRNA guide strands that differ only in the seed, positions 2 to 7.

In one data set the test system is M565. The data set can be described thus: cell viability relative to lipid-only control; higher = less toxic. The conditions noted are these: concentration: 10 nM; 96 h; Mus musculus.
In another data set the test system is HeyA8. Described as above. The conditions noted are these: concentration: 10 nM; 96 h; Homo sapiens.
The next data set relates to H460. Described as above. The conditions noted are these: concentration: 10 nM; 96 h; Homo sapiens.
In a further data set the test system is 3LL. The data set can be described thus: cell viability relative to siNT1 control; HeyA8 human ovarian and H460 human lung cancer; M565 mouse liver and 3LL mouse lung cancer; siNT1 is a non-toxic control siRNA; higher = less toxic. The conditions noted are these: concentration: 10 nM; 96 h; Mus musculus.
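Throughout, for cell viability relative to lipid-only control: reverse lipid transfection in 384-well plates, in triplicate, of duplexes on a non-toxic 19mer backbone with passenger strand 2′-O-methylated at positions 1 and 2, luminescence viability read-out.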
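Throughout, for cell viability relative to siNT1 control: Luminescence-based viability of cells reverse transfected in 384-well plates with lipid-complexed siRNAs built on a non-toxic 19mer backbone whose passenger strand carries 2′-O-methyl groups at positions 1 and 2, triplicates.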

By cell viability is commonly meant a read-out of living cells in per cent, often relative to untreated cells. In the case of UUUCGCGACAUGUAAACCAAA, the cell viability with M565 is 93.3 ± 14%; in the data set on HeyA8, 106 ± 2.8%; in the data set with H460, 72.6 ± 10%; in the data set with 3LL, 102 ± 2.8%.
For the sequence UGCUCCUACAUGUAAACCAAA, the cell viability in the data set on M565 turned out to be 36.1 ± 6.8%; in the data set with HeyA8, 29.5 ± 3.8%; in the data set with H460, 24.9 ± 0.81%; in the data set on 3LL, 9.2 ± 0.72%.
Taken in the same sequence, the figures for UACUUGUACAUGUAAACCAAA were 39 ± 9.6%, 44.4 ± 4.5%, 55.5 ± 11% and 4.6 ± 0.76%.
Taken in the same sequence, the figures for UCGAGCUACAUGUAAACCAAA were 30.6 ± 2.6%, 25.3 ± 2.6%, 58.9 ± 7.3% and 59.9 ± 15%.
Taken in the same sequence, the figures for UGUCUCGACAUGUAAACCAAA were 10.3 ± 3.4%, 28 ± 1.9%, 32.9 ± 4% and 18 ± 4.9%.
As to UUCAAAUACAUGUAAACCAAA, the cell viability with M565 was determined as 84.1 ± 14%; in the data set on HeyA8 it was 77.7 ± 13%; in the data set on H460, 64.3 ± 3.2%; in the data set on 3LL, 95.8 ± 15%.
UUAGUUGACAUGUAAACCAAA: the cell viability in the data set with M565 came to 87.6 ± 19%; with HeyA8, 81.8 ± 7.8%; with H460, 73.7 ± 16%; in the data set with 3LL, 101 ± 7.4%.
Taken in the same sequence, the figures for UCGGCGUACAUGUAAACCAAA were 29.4 ± 3%, 21.2 ± 1.8%, 30.4 ± 1.1% and 92.6 ± 14%.
Take UCCCGGGACAUGUAAACCAAA: the cell viability in the data set with M565 was found to be 62.2 ± 7.3%; in the data set on HeyA8, 89 ± 4.6%; in the data set with H460, 83.2 ± 10%; in the data set on 3LL, 98.7 ± 16%.
With UGCCUUCACAUGUAAACCAAA, the cell viability worked out at 32.6 ± 11% in the data set with M565, 6.89 ± 0.63% with HeyA8, 24.6 ± 3.8% in the data set with H460 and 6.1 ± 0.98% in the data set on 3LL.
For UCACUCGACAUGUAAACCAAA, the cell viability in the data set with M565 worked out at 65.1 ± 4.3%; in the data set with HeyA8 it was 91.3 ± 10%; with H460 it was 35 ± 6.5%; in the data set on 3LL, 79.5 ± 19%.
In the case of UGCUGCCACAUGUAAACCAAA, the cell viability was determined as 19.4 ± 11% in the data set with M565, 16.1 ± 2% in the data set with HeyA8, 14.6 ± 1.6% in the data set with H460 and 9.04 ± 2.6% in the data set with 3LL.
Taken in the same sequence, the figures for UAUACGGACAUGUAAACCAAA were 133 ± 1.5%, 98 ± 6.4%, 80.5 ± 8% and 119 ± 6.2%.
On to UCCGCGGACAUGUAAACCAAA, for which the cell viability was found to be 70.2 ± 19% in the data set on M565, 63.2 ± 8.9% with HeyA8, 71.2 ± 16% in the data set on H460 and 93.3 ± 16% with 3LL.
As to UGCCUCGACAUGUAAACCAAA, the cell viability with M565 was determined as 48 ± 6.2%; in the data set on HeyA8 it was 61.6 ± 2.2%; in the data set on H460, 36.2 ± 4.6%; in the data set on 3LL, 89.5 ± 11%.
Taken in the same sequence, the figures for UGGUAUGACAUGUAAACCAAA were 48.4 ± 3.4%, 32.3 ± 1.1%, 56.2 ± 6.8% and 59.8 ± 15%.
With UCUCAGAACAUGUAAACCAAA, the cell viability with M565 came to 66.1 ± 6%; in the data set on HeyA8, 89.7 ± 10%; with H460, 35.8 ± 1.4%; in the data set with 3LL, 92.8 ± 15%.
With UCGUAAGACAUGUAAACCAAA, the cell viability turned out to be 74.8 ± 4.7% with M565, 82.8 ± 1.6% in the data set on HeyA8, 91.1 ± 9.4% with H460 and 89.1 ± 8.8% with 3LL.
Taken in the same sequence, the figures for UUUGGGAACAUGUAAACCAAA were 68.3 ± 9.5%, 101 ± 1.3%, 74.5 ± 6.5% and 96.6 ± 8.1%.
UCCAAGAACAUGUAAACCAAA: the cell viability stood at 36.8 ± 8.4% in the data set on M565, 73.8 ± 5.6% in the data set with HeyA8, 51.4 ± 6.5% in the data set with H460 and 107 ± 26% in the data set on 3LL.
Turning to UUACGGCACAUGUAAACCAAA, the cell viability came to 42 ± 6.7% in the data set with M565, 33.9 ± 5% in the data set with HeyA8, 40.8 ± 3.6% in the data set with H460 and 10.7 ± 2.6% in the data set on 3LL.
Taken in the same sequence, the figures for UAAUGCUACAUGUAAACCAAA were 31.4 ± 10%, 55.6 ± 6%, 60.2 ± 6.7% and 23.2 ± 5.7%.
Taken in the same sequence, the figures for UAGGUCGACAUGUAAACCAAA were 47.8 ± 2.8%, 48.4 ± 4.6%, 68.2 ± 19% and 73.9 ± 4.5%.
Taken in the same sequence, the figures for UCGCAUCACAUGUAAACCAAA were 14.6 ± 3.1%, 62.7 ± 4.2%, 68.5 ± 13% and 75.2 ± 22%.
UAUGCGGACAUGUAAACCAAA: the cell viability in the data set on M565 came out at 70.5 ± 4.9%; with HeyA8 it was 99.8 ± 1.5%; in the data set with H460 it was 74.6 ± 4.3%; in the data set on 3LL, 107 ± 4%.
Taken in the same sequence, the figures for UAAUCGAACAUGUAAACCAAA were 94.8 ± 17%, 94.5 ± 4.7%, 68.2 ± 6% and 108 ± 3.9%.
Consider UACAUCGACAUGUAAACCAAA, for which the cell viability with M565 worked out at 65.7 ± 11%; with HeyA8, 75.1 ± 1.1%; in the data set with H460, 73.3 ± 15%; in the data set with 3LL, 91.1 ± 10%.
Take UCUGAUCACAUGUAAACCAAA: the cell viability in the data set on M565 was determined as 47.9 ± 10%; in the data set on HeyA8, 75.3 ± 4.7%; in the data set with H460 it was 49.6 ± 5.9%; with 3LL, 102 ± 18%.
For the sequence UCCGUAAACAUGUAAACCAAA, the cell viability worked out at 77.7 ± 15% with M565, 87.1 ± 3.1% in the data set on HeyA8, 60.9 ± 10% with H460 and 106 ± 20% in the data set on 3LL.
Taken in the same sequence, the figures for UUAUCUAACAUGUAAACCAAA were 82.7 ± 15%, 98.2 ± 4.3%, 72.9 ± 9.3% and 95.5 ± 5.2%.
